From a compilation of properties of binary mixtures (doi:10.1021/je200600p)
Some of these densities may be calculated back from excess volumes.

Experiment: xn = mol fraction of the nth substance listed
Conditions: 101 kPa

CCCC[n+]1ccn(C)c1.COP(=O)([O-])OC + CCO
mass density [kg/m3]
Conditions	293.15 K	298.15 K	303.15 K	308.15 K	313.15 K	318.15 K	323.15 K	328.15 K	333.15 K
x2 = 0.201	1144.7	1141.4	1138.1	–	1131.4	1128.1	1124.8	1121.5	1118.2
x2 = 0.399	–	–	1108	1104.6	–	–	–	–	–
x2 = 0.6	1069	1065.5	1061.9	1058.4	1054.9	1051.4	1047.9	1044.3	1040.8
x2 = 0.8	986.3	982.6	978.8	–	–	967.7	–	–	956.5

CC[n+]1ccn(C)c1.COP(=O)([O-])OC + CCO
mass density [kg/m3]
Conditions	293.15 K	298.15 K	303.15 K	308.15 K	313.15 K	318.15 K	323.15 K	328.15 K	333.15 K
x2 = 0.199	1196.1	1192.7	1189.2	1185.8	1182.4	1179	1175.6	–	1168.9
x2 = 0.398	1158.2	–	–	1147.7	1144.2	–	1137.3	1133.9	1130.5
x2 = 0.598	1098.9	–	1091.7	1088.1	1084.5	–	1077.4	1073.8	1070.3
x2 = 0.798	998.8	995	991.2	–	983.7	979.9	976.1	972.3	968.6

CCCC[n+]1ccn(C)c1.COP(=O)([O-])OC + CO
mass density [kg/m3]
Conditions	293.15 K	298.15 K	303.15 K	308.15 K	313.15 K	318.15 K	323.15 K	328.15 K	333.15 K
x2 = 0.203	1152.3	1149	1145.6	1142.3	1139	1135.6	1132.3	1129	1125.7
x2 = 0.404	1132.5	1129.1	1125.7	–	1118.9	–	1112.1	1108.7	1105.4
x2 = 0.6	1098.2	1094.6	1091.1	1087.5	1083.9	1080.4	1076.8	1073.1	1069.3
x2 = 0.8	–	1022.9	1019	1015.5	–	1008	1004.2	1000.5	996.7

CC[n+]1ccn(C)c1.COP(=O)([O-])OC + CO
mass density [kg/m3]
Conditions	293.15 K	298.15 K	303.15 K	308.15 K	313.15 K	318.15 K	323.15 K	328.15 K	333.15 K
x2 = 0.198	1207.1	1203.7	1200.2	1196.8	1193.4	1190	1186.6	1183.3	1180
x2 = 0.399	1179.1	1175.6	1172.1	1168.6	1165.2	1161.7	1158.3	–	–
x2 = 0.598	1134.9	–	1127.6	1123.8	1120.2	1116.4	1112.6	1108.8	1105
x2 = 0.799	1049.1	1045.3	1041.4	1037.6	1033.8	–	1026.1	1022.3	1018.5

CCCC[n+]1ccn(C)c1.COP(=O)([O-])OC + O
mass density [kg/m3]
Conditions	293.15 K	298.15 K	303.15 K	308.15 K	313.15 K	318.15 K	323.15 K	328.15 K	333.15 K
x2 = 0.201	1165.7	1162.4	–	1155.9	1152.5	1149.2	1145.9	1142.6	1139.3
x2 = 0.398	1165.7	–	1159.1	1155.7	1152.4	–	1145.7	–	1139
x2 = 0.601	1162.9	1159.4	–	1152.5	1149	1145.5	1142	1138.5	1135.1
x2 = 0.799	1148.8	1145.2	1141.6	1137.9	–	1130.3	1126.6	1122.8	1118.9

CC[n+]1ccn(C)c1.COP(=O)([O-])OC + O
mass density [kg/m3]
Conditions	293.15 K	298.15 K	303.15 K	308.15 K	313.15 K	318.15 K	323.15 K	328.15 K	333.15 K
x2 = 0.198	–	–	–	1213.2	1209.9	–	1203.2	1199.8	–
x2 = 0.399	1222.6	1219.2	1215.8	1212.5	1209.1	–	1202.4	–	1195.6
x2 = 0.6	1217.9	1214.4	1211	1207.5	1204.1	1200.6	1197.1	1193.6	1190.1
x2 = 0.799	1195	1191.4	1187.7	1184	1180.2	–	1172.7	1168.8	1165
